# “And” between values parts separate entries of the source, which are not always exact repeats. Equal entries are not always repeated. Whole data set: some 5,300 compounds, median “PER2::LUC luminescence relative to vehicle control” near 0.96, cut for the highest 2% near 1.3. This is one part of the list.
# Tested on: mPer2Luc MEF
# Assay: PER2::LUC luminescence relative to vehicle control (fold of vehicle); higher = higher PER2::LUC reporter signal
# Conditions: 10 µM
# Outline: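 In 384-well plates, ~3000 mPer2Luc reporter mouse embryonic fibroblasts per well were cultured in DMEM with 10% FBS at 37 °C and 5% CO2 for 48 h before compounds from commercial libraries were added at 10 μM. ONE-Glo luciferase readings were taken 24 h and 30 h after treatment. Each value is PER2::LUC luminescence given as fold of vehicle control.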
SMILES,PER2::LUC luminescence (time after treatment 24 h),PER2::LUC luminescence (time after treatment 30 h)
Nc1nc(Nc2ccc3c(c2)CCC(N2CCCC2)CC3)nn1-c1cc2c(nn1)-c1ccccc1CCC2 (configuration not stated),0.438,0.375
CCCC(=O)OCOC(=O)C1=C(C)NC(C)=C(C(=O)OC)C1c1cccc(Cl)c1Cl (configuration not stated),1.14 and 1.2,0.98 and 1.15
Cc1cccc(C(=O)NCN2CCN(c3ccccc3C#N)CC2)c1,1.16,0.887
CN(C)CCCN1c2ccccc2CCc2ccccc21,0.687,0.623
C[C@H]1COc2c(N3CCN(C)CC3)c(F)cc3c(=O)c(C(=O)O)cn1c23,0.954 and 1.02,1.04 and 1.12
CC(=O)c1ccc2c(c1)[C@H](NC(=O)c1ccc(F)c(Cl)c1)[C@H](O)C(C)(C)O2,0.934,1.09
NC(CO)C(=O)NNCc1ccc(O)c(O)c1O (configuration not stated),1.04,1.1
NC1(C(=O)O)CCc2cc(C(=O)O)ccc21 (configuration not stated),0.992,0.984
C=C1CCC2C(CC2(C)C)C(=O)CCC1O (configuration not stated),1.03,1.02
Nc1ccc2c3c(cccc13)C(=O)NC2=O,0.904,1.03
C/C=C1\[C@H]2C=C(C)C[C@]1(N)c1ccc(=O)[nH]c1C2,0.993 and 0.919,0.965 and 0.966
CN1CCN(C2CCN(C(=O)Nc3cc(Oc4ccc(NC(=O)C5(C(=O)Nc6ccc(F)cc6)CC5)c(F)c4)ccn3)CC2)CC1,0.417 and 0.41,0.546 and 0.495
C[N+](C)(C)CCO.[Cl-],1.14,0.914
COc1cccc(-c2cc(=O)c3ccc(OC)cc3o2)c1,0.879,0.955
FC(F)(F)c1cccc(-c2noc(-c3cc(-c4ccccc4)c(C(F)(F)F)s3)n2)c1,1.17,1.14
CN1CCC(OC(c2ccccc2)c2ccccc2)CC1,0.918,0.816
CCOC(=O)[C@H](CCc1ccccc1)N[C@@H](C)C(=O)N1Cc2cc(OC)c(OC)cc2C[C@H]1C(=O)O,1.08,1.13
O=C(Oc1cccc2cccnc12)c1ccccc1,0.981,0.956
COc1cc(/C=C/C(=O)NCCn2c(C(F)(F)F)cc3ccccc32)cc(OC)c1OC,0.876,0.967
COC(=O)c1ccc2c(C(=Nc3ccc(N(C)C(=O)CN4CCN(C)CC4)cc3)c3ccccc3)c(O)[nH]c2c1,0.421,0.285
C[C@@H]1CN(Cc2ncccn2)C[C@H]1c1nc2c(cnn2C2CCOCC2)c(=O)[nH]1,0.969,1.01

SMILES,PER2::LUC luminescence (time after treatment 24 h),PER2::LUC luminescence (time after treatment 30 h)
Cn1cc(-c2ccc3nnc(Sc4ccc5ncccc5c4)n3n2)cn1,1.07,0.945
Clc1ccc(Nc2nnc(Cc3ccncc3)c3ccccc23)cc1,0.783,0.673
O=C1NC(=O)/C(=C/c2cccc(C(F)(F)F)c2)S1,1.02,1.06
Cc1cc(O)c2c(c1)C(=O)c1cc(O)cc(O)c1C2=O,1.18,1.2
CC(C)CN(C[C@@H](O)[C@H](Cc1ccccc1)NC(=O)O[C@H]1CO[C@H]2OCC[C@H]21)S(=O)(=O)c1ccc(N)cc1,1.05,1.06
Cc1cc2nc3c(=O)[nH]c(=O)nc-3n(CC(O)C(O)C(O)COP(=O)(O)O)c2cc1C (configuration not stated),0.997,0.975
COc1cc(/C=C/C(=O)CC(=O)/C=C/c2ccc(O)c(OC)c2)ccc1O,0.568,0.879
O=C(O)CSCC(=O)NC1CCSC1=O (configuration not stated),0.896,0.847
Cc1cc2c(F)c(Oc3ncnn4cc(OC[C@@H](C)O)c(C)c34)ccc2[nH]1,0.981 and 0.929,0.917 and 0.933
CC(C)=CCOc1cc2oc(=O)ccc2cc1O,0.944,1.04
O=C1c2cccc3c2[C@H](CCC3)CN1[C@@H]1CN2CCC1CC2,0.767,0.668
CCCCCCN(CCCCCC)C(=O)Cc1c(-c2ccc(Cl)cc2)[nH]c2ccc(Cl)cc12,0.985,0.959
NCC[C@H](O)C(=O)N[C@@H]1C[C@H](N)[C@@H](O[C@H]2O[C@H](CN)[C@@H](O)[C@H](O)[C@H]2O)[C@H](O)[C@H]1O[C@H]1O[C@H](CO)[C@@H](O)[C@H](N)[C@H]1O,1.08 and 0.691,0.942 and 0.938
COc1ccc2c(c1)OC[C@@H](Cc1ccc(OC)c(OC)c1)[C@H]2O,0.919,0.852
CC(C)C(=O)Nc1ccc([N+](=O)[O-])c(C(F)(F)F)c1,0.959,1.17
Cn1cnc([N+](=O)[O-])c1Sc1ncnc2[nH]cnc12,0.845,0.837
CC(=O)Oc1cc2c(s1)CCN(C(C(=O)C1CC1)c1ccccc1F)C2 (configuration not stated),1.03,0.985
COc1c2c(nc3ccccc13)OC(C(C)(O)CO)C2 (configuration not stated),1.11,1.08
C#CCCC(=O)O,1.07,0.985
CC(=O)Oc1ccc(O)cc1,0.907,1.01
CC1(C)CCC2=C(O1)c1ccccc1C(=O)C2=O,–,0.807 and 0.31

SMILES,PER2::LUC luminescence (time after treatment 24 h),PER2::LUC luminescence (time after treatment 30 h)
CC(=O)OCC[N+](C)(C)C,1.01,1.07
S=C(NCc1ccc2c(c1)OCO2)N1CCN(c2ncnc3c2oc2ccccc23)CC1,0.176,0.229
O=C(O)c1nc2cc(Cl)c(Cl)cc2nc1O,1.07,0.988
CCC(=O)NC1CCc2cccc(OC)c2C1 (configuration not stated),0.911,0.961
CC(=O)O[C@H]1C[C@@H](OC(C)=O)C(C)(C)C2CC(=O)[C@]3(C)C(CC[C@@]4(C)[C@H](c5ccoc5)OC(=O)[C@H]5O[C@]543)[C@]21C (some centres not stated),0.894,0.926
Ic1cccc(/C=N/Nc2nc(N3CCOCC3)nc(N(c3ccccc3)c3ccccc3)n2)c1,1.3,1.15
OCCN1C[C@H](O)[C@@H](O)[C@H](O)[C@H]1CO,0.433,0.775
CCc1c(C(=O)NNC(=O)[C@H](O)c2cc(F)cc(F)c2)ccc(O)c1C,1,0.957
CC(=O)SCC(Cc1ccccc1)C(=O)NCC(=O)OCc1ccccc1 (configuration not stated),0.847 and 1.09,1.07 and 1.06
O=C(O)/C=C/c1cnc[nH]1,0.983,0.995
N[C@@H](CSCCCO)C(=O)O,0.965,0.985
C[C@H](CCC(=O)O)[C@H]1CC[C@H]2[C@@H]3CC[C@@H]4C[C@H](O)CC[C@]4(C)[C@H]3CC[C@]12C,1.01,0.973
Cn1c(Nc2ccc(C(F)(F)F)cc2)nc2cc(Oc3ccnc(-c4ncc(C(F)(F)F)[nH]4)c3)ccc21,1.1,1.01
CCOC(=O)[C@@]1(CCCCCCOc2ccc(Cl)cc2)CO1,1.05,0.984
COc1cc(Oc2ccnc3cc(OC)c(OC)cc23)ccc1NC(=O)NC(C)c1nccs1 (configuration not stated),0.932,1.02
CCNC(=O)[C@@H]1CCCN1C(=O)[C@H](CCCN=C(N)N)NC(=O)[C@H](CC(C)C)NC(=O)[C@@H](C)NC(=O)[C@H](Cc1ccc(O)cc1)NC(=O)[C@H](CO)NC(=O)[C@H](Cc1c[nH]c2ccccc12)NC(=O)[C@H](Cc1cnc[nH]1)NC(=O)[C@@H]1CCC(=O)N1,1.2,0.959
COC(=O)C1=C(C)NC(C)=C(C(=O)OC(C)C)C1c1cccc2nonc12 (configuration not stated),0.955,0.797
COCC(=O)Nc1c(I)c(C(=O)NCC(O)CO)c(I)c(C(=O)N(C)CC(O)CO)c1I (configuration not stated),0.507,0.777
C[C@@]1(O)CCOC(=O)C1,0.929,0.941
CCOC(=O)Nc1ccc(NCc2ccc(F)cc2)nc1N,0.981,0.937
CCOc1cc(C(C)(C)C)ccc1C1=N[C@@](C)(c2ccc(Cl)cc2)[C@@](C)(c2ccc(Cl)cc2)N1C(=O)N1CCN(CCCS(C)(=O)=O)CC1,0.851,0.64

SMILES,PER2::LUC luminescence (time after treatment 24 h),PER2::LUC luminescence (time after treatment 30 h)
CN1CCN(c2cc3c(cc2F)c(=O)c(C(=O)O)cn3-c2ccc(F)cc2)CC1,0.702,1.12
O=C(O)CCCC[C@@H]1SC[C@@H]2NC(=O)N[C@@H]21,1.14 and 0.996,0.894 and 0.906
CC1COc2c(N3CCN(C)CC3)c(F)cc3c(=O)c(C(=O)O)cn1c23 (configuration not stated),0.979,0.779
O=C(/C=C/N1C[C@H]2C[C@@H]1CN2c1ccccn1)c1ccccc1O,1.07,0.955
COc1ccc(-c2cc3nccn3c(Nc3ncccc3C(N)=O)n2)cc1OC,0.257,0.352
COc1ccc(CCn2nnnc2C2(c3ccc(C)cc3)CC2)cc1,1.12,0.969
COc1ccc(CCC(=O)Nc2nc3ccc(Cl)cc3s2)cc1OC,0.875 and 0.954,1.04 and 0.951
NC(=O)C[C@H](NC(=O)Cc1ccc(O)cc1O)C(=O)O,1.03,1.01
C=C1C(=O)O[C@H]2[C@H]1CC/C(C)=C/CC[C@@]1(C)O[C@@H]21,1.06,0.877
COc1cccc(O)c1O,1.06,0.924
CCCCOc1ccc(C(=O)CCN2CCCCC2)cc1,0.957,1.41
C[C@H](CC(=O)[C@@H]1OC1(C)C)[C@H]1C(=O)C[C@@]2(C)C3=CC[C@H]4C(C)(C)[C@@H](O[C@@H]5OC[C@@H](O)[C@H](O)[C@H]5O)CC[C@@]45C[C@@]35[C@@H](O)C[C@]12C,0.93,0.911
C[C@]12CC[C@H](O)CC1=CC[C@@H]1[C@@H]2CC[C@]2(C)C(c3cccnc3)=CC[C@@H]12,1.11,1.01
CC(C)(C)CC(C)(C)c1ccc(OCCOCC[N+](C)(C)Cc2ccccc2)cc1,0.206,0.228
O=[N+]([O-])c1cn2c(n1)OC[C@@H](OCc1ccc(OC(F)(F)F)cc1)C2,0.716,0.923
Cn1nnc2c(C(N)=O)ncn2c1=O,0.957 and 0.946,1.09 and 0.894
CN1[C@@H]2CC[C@H]1C[C@@H](OC(=O)C(O)c1ccccc1)C2 (mixture of isomers),0.871,0.782
CN1[C@@H]2CC[C@H]1C[C@@H](OC(=O)C(O)c1ccccc1)C2 (some centres not stated),0.492,0.82
Cc1ccc(C(=O)N(CCCN)[C@@H](c2oc3cc(Cl)ccc3c(=O)c2Cc2ccccc2)C(C)C)cc1,0.328,0.378
C=CC1=C(C)/C(=C/c2[nH]c(Cc3[nH]c(/C=C4\NC(=O)C(C)=C4C=C)c(C)c3CCC(=O)O)c(CCC(=O)O)c2C)NC1=O,0.971,0.968
C=CC[N+]1([C@H]2C[C@H]3[C@@H]4CC[C@H]5C[C@H](O)[C@@H](N6CCOCC6)C[C@]5(C)[C@H]4CC[C@]3(C)[C@H]2OC(C)=O)CCCC1,1.11,1.05
